# According to the supplement of paper PMC4466236:
# Over roughly 33,000 sequences, “E-score (dimensionless, -0.5 to 0.5)” has its median near -0.058; the highest 2% begin near 0.35. Some of the results follow.
# Test system: MvaT
# Test: PBM 8-mer E-score (mean of HK and ME arrays) (E-score (dimensionless, -0.5 to 0.5)); higher = stronger relative binding preference; most listed sequences are background and not binding sites
# Method in brief: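 Full-length P. aeruginosa MvaT, with glutathione S-transferase fused to its N-terminus (cloned into pTH6838 by isothermal assembly), was tested by protein binding microarray using a previously described protocol. Two universal double-stranded 60-mer arrays (ME and HK) were used, each with a constant 25-mer primer region and a variable 35-mer region covering all 8-mers. The rank-based 8-mer E-score (-0.5 to 0.5) is the mean of the two arrays, parsed with a custom Python script.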
row,Sequence,PBM 8-mer E-score
1,ATCTGGAA,-0.0325
2,CCGTACAC,-0.121
3,CAAGGGGG,-0.275
4,GCCACGCA,-0.169
5,AAGTGTGA,0.154
6,AGTGCACT,0.18
7,CAGGTTGC,-0.171
8,CCGGCTAG,-0.138
9,GGCCACCC,-0.29
10,GGGAGAAA,-0.174
11,GTGTATTA,0.276
12,GACCTATA,0.04
13,ACTGAACT,0.161
14,AGGCTGCA,-0.0853
15,AGCGGCCG,-0.221
16,CGGCTTCC,-0.242
17,AACCCTCA,-0.038
18,GCGCTAGC,-0.217
19,CGCAGCCC,-0.334
20,GGACAGCC,-0.309
21,GGCCGACA,-0.0912
22,ATCTGGAG,-0.122
23,TAGGTTGA,0.0349
24,CCGTGTGC,-0.295
25,GCAAGACC,-0.207

row,Sequence,PBM 8-mer E-score
1,CCTTCGGC,-0.319
2,CACATTGG,-0.103
3,ATCAATCA,0.102
4,CGGCTGAA,-0.0544
5,AAATCACT,-0.0197
6,CTGTCTCC,-0.0733
7,ACGCTCCT,-0.144
8,TACAGGTA,0.14
9,CATCGCGG,-0.0305
10,ATGCCATG,-0.224
11,TGCTGAAA,0.105
12,AGCGCATC,-0.0922
13,CGAGACGA,-0.293
14,GGCGCCCC,-0.303
15,ATTAGGCA,0.117
16,AGGAATAT,0.298
17,AAACCGGC,-0.0505
18,CCTATCAC,-0.185
19,GCTTGCAC,-0.171
20,GGCGTCAC,-0.247
21,GGGCCCTA,-0.218
22,AACGAAAC,0.234
23,AAACTTTG,0.317
24,GCTCCAAC,-0.245
25,GTAACCTA,0.0624

row,Sequence,PBM 8-mer E-score
1,AACATCTC,0.0471
2,CTGAGCCA,-0.258
3,TGAAAGCA,-0.0371
4,ACGATCAG,-0.152
5,GCCATAAC,-0.0968
6,AAGCGCAC,-0.147
7,CAGGCGCC,-0.314
8,GAGCACTC,-0.181
9,GGACACCA,-0.0615
10,CTTGATAC,0.0432
11,ACGAGCTA,-0.128
12,GAAATCCC,-0.0341
13,GGTCTGGA,-0.13
14,ATGTTAAG,0.178
15,TACTCATA,0.153
16,AGGATTAC,-0.143
17,ATCGCCAC,0.0178
18,CTTCCACA,0.0827
19,CCTAAAAC,-0.0237
20,AGTCAAAC,0.153
21,GCAAACAA,0.0823
22,ATCTTTGC,0.0261
23,ACGTTTAA,0.195
24,CTCGTTAA,0.0773
25,AATTCGGA,0.0801

row,Sequence,PBM 8-mer E-score
1,CAACGTTG,0.0711
2,GGCGTCCA,-0.193
3,CGGATCAG,-0.207
4,GATAAACA,0.278
5,ACATAGGG,0.054
6,GCTTTACA,0.112
7,GGCAACTA,0.0618
8,ACGGGTAT,0.158
9,CAACATCG,0.0671
10,CAACCAGA,-0.0974
11,AGCCTTGG,-0.159
12,CCCAGAAG,-0.183
13,AAGTGTCC,0.042
14,AGAATACT,0.126
15,AACTAGTA,0.303
16,CCCATTGA,-0.17
17,GCCATCAC,-0.0948
18,ATGTATGA,0.159
19,GCACTCTA,-0.000778
20,CAACTAAA,0.205
21,AACGAGTT,0.162
22,CAAGTAAC,0.265
23,CGAGGCTA,-0.0952
24,ATAGGGCA,-0.0415
25,CCATACCG,-0.195

row,Sequence,PBM 8-mer E-score
1,AACAGCAT,0.122
2,GCATGACC,-0.198
3,GACCGTCA,-0.261
4,AGTTAACA,0.348
5,GTAAACAC,0.0546
6,CACTTTCA,0.136
7,TATGAATA,0.232
8,AGTACCTA,0.0753
9,AGCGAACT,-0.104
10,GACATATC,0.113
11,CAGAACAA,-0.0753
12,CCTCGAGC,-0.149
13,AGCCAACG,-0.346
14,ACGGGATA,0.0845
15,ATAAGGTC,0.118
16,AGTACTTA,0.292
17,CCCAGGAG,-0.259
18,CCAGGGCA,-0.264
19,ACCACTAC,-0.0572
20,GTGCTAAA,0.133
21,CATAGCCG,-0.254
22,CCCTCGAA,-0.157
23,GCAACTTA,0.262
24,GCTCCGCA,-0.267
25,ATGCATTC,0.109

row,Sequence,PBM 8-mer E-score
1,AATGACCA,0.0582
2,AGTTCGAC,0.00973
3,CGTGCACA,-0.135
4,TCGGAAAA,-0.00542
5,TGATGACA,-0.0297
6,GCCCGCTA,-0.28
7,CGAATTAC,0.126
8,ACTTATGC,0.124
9,GAGATATC,0.163
10,CGCCGTAG,-0.186
11,GGCGAACC,-0.221
12,CAAAACTC,-0.00476
13,TCCCGCGA,-0.0244
14,CACAAATA,0.338
15,GCGTCGCA,-0.0355
16,ACCAATAC,0.171
17,TTAACAAA,0.34
18,CGATACAA,0.0538
19,AGAGAGCA,-0.185
20,ACAATACA,0.262
21,AGGGTGCG,-0.239
22,CGGGTCCA,-0.221
23,CCGCGCGG,-0.227
24,CCACCAGC,-0.25
25,GACGCCGA,-0.204

row,Sequence,PBM 8-mer E-score
1,GCCGGGAC,-0.263
2,AAGGCCAC,-0.103
3,AGGAGCGG,-0.155
4,ATGCCACA,0.04
5,GGAGGTAC,-0.23
6,GAAACTGC,-0.0519
7,CGAGTTCC,-0.114
8,TAATCATA,0.325
9,CCCCATTC,-0.16
10,AAGTCTTC,0.049
11,AAATACGC,0.156
12,ATTCAGCG,-0.131
13,AGACCCTA,-0.308
14,CAAGCCAC,-0.22
15,ATACGAAA,0.148
16,CCGCCCGA,-0.197
17,AAATCCGC,0.0391
18,CGGCACAA,0.0115
19,AGATGTTC,0.0116
20,ACAATTCG,0.163
21,GACCCACA,-0.116
22,ACTAATAC,0.247
